In article PMC4336329 (PLoS ONE, 2015):
The campaign covered roughly 310,000 compounds. About 14,000 (4.5%) showed an effect of 50% or more. Effects have a minus sign here. The list shows a part of the results.

target: human ether-à-go-go-related gene (hERG) potassium channel (human, UniProt Q12809); assay: primary screen, population patch clamp on CHO cells stably expressing hERG
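Further: peak tail current of the secondary pulse compared with the same well before compound.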

Chain of human ether-à-go-go-related gene (hERG) potassium channel (Q12809 whole entry, looked up): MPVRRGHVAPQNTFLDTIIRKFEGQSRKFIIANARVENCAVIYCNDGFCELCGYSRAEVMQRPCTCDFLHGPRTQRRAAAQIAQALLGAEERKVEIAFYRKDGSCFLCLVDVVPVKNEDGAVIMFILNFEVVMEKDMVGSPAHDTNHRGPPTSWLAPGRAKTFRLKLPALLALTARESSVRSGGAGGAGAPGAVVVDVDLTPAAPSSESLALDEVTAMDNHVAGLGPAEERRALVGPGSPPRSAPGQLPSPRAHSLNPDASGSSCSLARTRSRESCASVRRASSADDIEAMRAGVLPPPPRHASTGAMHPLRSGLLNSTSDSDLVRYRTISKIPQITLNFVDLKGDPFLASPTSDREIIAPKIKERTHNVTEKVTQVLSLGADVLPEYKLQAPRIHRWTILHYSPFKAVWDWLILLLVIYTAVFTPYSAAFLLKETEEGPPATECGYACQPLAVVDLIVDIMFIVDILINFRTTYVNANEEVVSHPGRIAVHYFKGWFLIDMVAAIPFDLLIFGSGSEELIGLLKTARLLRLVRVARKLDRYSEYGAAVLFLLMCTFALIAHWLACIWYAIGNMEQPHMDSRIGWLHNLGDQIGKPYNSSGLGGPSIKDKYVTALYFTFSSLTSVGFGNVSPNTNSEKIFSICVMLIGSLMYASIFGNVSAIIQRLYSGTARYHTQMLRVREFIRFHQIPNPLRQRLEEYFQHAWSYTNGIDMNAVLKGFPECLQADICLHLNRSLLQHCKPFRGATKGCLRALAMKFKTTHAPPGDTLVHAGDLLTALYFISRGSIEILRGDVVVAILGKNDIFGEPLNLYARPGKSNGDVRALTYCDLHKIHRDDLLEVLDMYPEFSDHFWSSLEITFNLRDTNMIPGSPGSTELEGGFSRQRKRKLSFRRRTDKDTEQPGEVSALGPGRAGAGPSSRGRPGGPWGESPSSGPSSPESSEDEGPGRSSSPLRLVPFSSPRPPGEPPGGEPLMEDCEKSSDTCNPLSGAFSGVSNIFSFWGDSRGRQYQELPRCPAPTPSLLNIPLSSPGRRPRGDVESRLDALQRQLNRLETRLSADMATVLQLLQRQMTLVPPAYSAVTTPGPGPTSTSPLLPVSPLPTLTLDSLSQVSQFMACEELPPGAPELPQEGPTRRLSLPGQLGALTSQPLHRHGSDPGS

Row | Compound | hERG current change (%, negative = inhibition) at 10uM [%]
1 | COc1ccccc1NC(=S)N(Cc1ccccc1)Cc1cccnc1 | -42.9
2 | O=c1[nH]c(CCC2CCCC2)nc2ccccc12 | -4.43
3 | COc1ccc(S(=O)(=O)N(CC(=O)NCc2cccnc2)c2ccc(C)cc2)cc1OC | -10
4 | CCOc1ccc(C(=O)Nc2cc(-c3nc4ccccc4[nH]3)ccc2Cl)cc1[N+](=O)[O-] | -29.1
5 | CCCN1CC(=O)N2Cc3[nH]c4ccccc4c3C[C@H]2C1=O | 14.3
6 | Cc1ccccc1-n1c(C)nnc1SCC(=O)NC1CCCc2ccccc21 (centres unmarked) | -5.87
7 | CSc1nsc(SC)c1C(=O)N1CCN(S(=O)(=O)c2ccc(C)cc2)C1C(C)C (centres unmarked) | -6.82
8 | CCc1cc2c(=O)n3c(nc2s1)-c1[nH]c2ccc(OC)cc2c1CC3 | 11.5
9 | CCN(Cc1ccccc1)C(=O)Cn1c(=O)n(CCC(=O)N2CCCCC2)c(=O)c2sccc21 | 0.148
10 | Cc1cc([N+](=O)[O-])nn1CC(=O)N1CCN(Cc2ccccc2)CC1 | -8.96
11 | COc1ccccc1OCCNC(=O)C1CC(=O)N(c2ccc3c(c2)OCCO3)C1 (centres unmarked) | -0.264
12 | Cc1c(C(=O)OCC(C)(C)CN(C)C)oc2ccccc12.Cl | -52
13 | Nc1nc(-c2ccccc2Br)cs1 | 2.46
14 | Cc1cccc(C)c1NC(=O)Cn1c(=O)n(CCCC(=O)NCc2ccco2)c(=O)c2sccc21 | 2.06
15 | Cc1cc2ccc(C)c(C)c2nc1SCC(=O)c1cccs1 | -2.49
16 | O=C1NC(=O)C(=Cc2coc3ccc(O)cc3c2=O)C(=O)N1 | 6.98
17 | CC(=O)Nc1cccc(NC(=O)c2cccc(OCc3ccccc3)c2)c1 | 10.6
18 | CC(=O)c1ccc(N2CCN(C(=O)CCN3C(=S)NC(C)(C)CC3C)CC2)cc1 (centres unmarked) | -5.53
19 | CCOC(=O)CNc1nc(Cl)nc(Nc2ccccc2)n1 | 6.74
20 | COc1ccc(OCC(=O)NCCNC(=O)c2cccnc2)cc1 | 20.3
21 | CCOC(=O)c1c(C)[nH]c(C(=O)N/N=C/c2cc([N+](=O)[O-])ccc2O)c1C | 33.7
22 | COc1ccc(-c2csc(NC(=O)c3ccccc3C(=O)O)n2)cc1 | 14.2

Row | Compound | hERG current change (%, negative = inhibition) at 10uM [%]
23 | O=C1C=C(c2ccc(Cl)c(C(F)(F)F)c2)C[C@@H](c2ccc3c(c2)OCO3)C1 | 20.3
24 | COc1ccc(CC(=O)NC2CCS(=O)(=O)C2)cc1 (centres unmarked) | 10
25 | O=C(Nc1nc2ccccc2s1)C1c2ccccc2Oc2ccccc21 | -3.75
26 | Cc1cc(NC(=O)CCC(=O)N(Cc2ccco2)C(C(=O)NCC2CCCO2)c2ccncc2)no1 (centres unmarked) | 5.9
27 | Cc1ccc(/C=N/n2cnc3sc(-c4ccccc4)cc3c2=O)o1 | -0.659
28 | CSc1nc2nc3c(c(=O)n2[nH]1)CCC3 | 5.22
29 | CCc1nnc2sc(-c3ccc(NC(=O)c4ccc5c(c4)OCCO5)cc3)nn12 | 18.1
30 | COc1cc(C(=O)OCC(=O)Nc2cc(-c3cc(C)c(C)cc3C)nn2-c2ccccc2)cc(OC)c1OC | 14
31 | Fc1ccccc1/C=N/n1c(C2CCCCC2)n[nH]c1=S | 18.1
32 | NS(=O)(=O)c1ccc(NC(=S)Nc2ccc(F)c(F)c2)cc1 | 25.8
33 | COC(=O)c1ccc(/C=N/NC(=O)C(=O)NCc2ccccc2)cc1 | 14.1
34 | COc1ccccc1-n1c(C)nc2cc(C(=O)NCc3ccc4c(c3)OCO4)ccc21 | -13.1
35 | Cc1ccc(S(=O)(=O)NN=C2C3CC4CC(C3)CC2C4)cc1[N+](=O)[O-] | 1.11
36 | COc1ccc(NC(=O)c2ccccc2NC(=O)c2ccco2)cc1 | 18.5
37 | C[C@H](NC(=O)C1CC(=O)N(c2ccc3c(c2)OCO3)C1)C(=O)NCc1ccco1 (some centres unmarked) | 14.2
38 | NNC(=O)c1cccc(O)c1 | 4.72
39 | C[C@@]12CC(=O)NC1N(C(=O)c1cccc(C(F)(F)F)c1)C(c1ccccc1OC(=O)c1cccc(C(F)(F)F)c1)C2 (some centres unmarked) | -0.506
40 | Cc1c(C(=O)NCCCN2CCOCC2)oc2ccc(S(=O)(=O)N3CCOCC3)cc12 | 18.3
41 | CC1=NN(C(N)=S)C(=O)C1N=Nc1ccc([N+](=O)[O-])cc1 (centres unmarked) | 0.571
42 | CCOC(=O)C1=C(C)N=c2s/c(=C\c3ccc(OC(C)=O)c(OCC)c3)c(=O)n2C1/C=C/c1ccccc1 (centres unmarked) | -1.38
43 | CN1CC(C(=O)c2ccc(F)cc2)C(c2c(F)cccc2Cl)C1 (centres unmarked) | -65.7
44 | COc1cc(/C=C/C(=O)O)cc(S(=O)(=O)Nc2cccc(S(=O)(=O)N3CCOCC3)c2)c1OC | 4.12
